# Data taken from PubChem BioAssay (NCATS).
# Inconclusive means that the source gave no clear call. Such entries were picked first, then a sample of the others. Where the call is inconclusive, the potency comes from a doubtful curve fit. Active and inactive are the calls of the source. The call rests on the fitted dose curve; in most records, active means well fitted cell-killing curve with a large enough effect; inconclusive means small, poorly fitted or top-dose-only effect, or effect the other way; inactive means flat fitted curve, though single readings scatter.
# Test system: Es-2
# Test: Primary qHTS to identify gynecologic anti-cancer compounds using libraries of approved drugs and bioactive compounds (AID 1345084); further: nearly all actives have a fitted effect of over 55% in size
# Conditions: Gynecologic cancer cell panel viability, ATPlite luminescence, 48 h; series mostly up to 57.5 µM
# Method in brief: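 Cell viability after 48 h drug treatment, ATPlite luminescence readout; five doses.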
# Potency means the concentration at half of the fitted maximal effect; tags describe the fitted curve by direction and shape.
row,Compound,Potency
1,S=c1nc[nH]c2nc[nH]c12,active: 5.62 µM
2,CN(C)C(=O)C(CCN1CCC(O)(c2ccc(Cl)cc2)CC1)(c1ccccc1)c1ccccc1,"inconclusive: 35.5 µM [cytotoxic, single point]"
3,COc1cc(N2CCC(N3CCN(C)CC3)CC2)ccc1Nc1ncnc(Nc2ccccc2S(=O)(=O)C(C)C)n1,"inconclusive: 39.8 µM [cytotoxic, single point]"
4,CCCOc1ccc2nc(NC(=O)OC)[nH]c2c1,active: 0.631 µM
5,CS(=O)(=O)N1CCN(Cc2cc3nc(-c4cccc5[nH]ncc45)nc(N4CCOCC4)c3s2)CC1,"inconclusive: 39.8 µM [cytotoxic, single point]"
6,CCOc1ccc(Nc2nc(-c3c(C)nc4ccccn34)cs2)cc1,active: 0.316 µM
7,Cc1cc(C2CCCCC2)n(O)c(=O)c1,active: 14.1 µM
8,OCCCNc1cc(-c2ccnc(Nc3cccc(Cl)c3)n2)ccn1,active: 0.224 µM
9,COc1cc([C@@H]2c3cc4c(cc3[C@H](O)[C@H]3COC(=O)[C@H]23)OCO4)cc(OC)c1OC,inconclusive: 0.282 µM
10,CC(C)n1nc(-c2ccc3oc(N)nc3c2)c2c(N)ncnc21,"inconclusive: 0.282 µM [cytotoxic, full curve, poor fit]"
11,COc1cc(N2CCC(N3CCN(C)CC3)CC2)ccc1Nc1ncc(Cl)c(Nc2ccccc2S(=O)(=O)C(C)C)n1,"inconclusive: 20 µM [cytotoxic, partial curve, poor fit]"
